Test results taken from the supplement of paper PMC8728848.
The list shows a part of the results.

How the values were obtained:
Assay in all cases: glycan array binding signal (z-score within array); higher = stronger binding
Details in all cases: glycan notation: IUPAC condensed, linker removed
Fuc(a1-2)Gal = target: Fuc(a1-2)Gal
Method in brief: (§1)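 Glycan array binding is given as a within-array Z-score, which can be read as non-binding when negative. The arrays, 3228 of them, came from the Consortium for Functional Glycomics database and were retained only where the protein sequence was available. Z-scores were averaged across arrays of the same protein sequence at different concentrations or buffers and across linkers.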

Fuc(a1-2)Gal(b1-3)GalNAc = target: Fuc(a1-2)Gal(b1-3)GalNAc
Method in brief: as §1

[1] = target: Fuc(a1-2)Gal(b1-3)GalNAc(b1-3)Gal
Method in brief: as §1

[2] = target: Fuc(a1-2)Gal(b1-3)GalNAc(b1-3)Gal(a1-4)Gal(b1-4)Glc
Method in brief: as §1

[3] = target: Fuc(a1-2)Gal(b1-3)GalNAc(b1-4)[Neu5Ac(a2-3)]Gal(b1-4)Glc
Method in brief: as §1

Fuc(a1-2)Gal(b1-3)GlcNAc = target: Fuc(a1-2)Gal(b1-3)GlcNAc
Method in brief: as §1

[4] = target: Fuc(a1-2)Gal(b1-3)GlcNAc(b1-3)Gal(b1-4)Glc
Method in brief: as §1

[5] = target: Fuc(a1-2)Gal(b1-3)[Fuc(a1-4)]GlcNAc
Method in brief: as §1

Fuc(a1-2)Gal(b1-4)Glc = target: Fuc(a1-2)Gal(b1-4)Glc
Method in brief: as §1

Fuc(a1-2)Gal(b1-4)Glc6S = target: Fuc(a1-2)Gal(b1-4)Glc6S
Method in brief: as §1

Fuc(a1-2)Gal(b1-4)GlcNAc = target: Fuc(a1-2)Gal(b1-4)GlcNAc
Method in brief: as §1

[6] = target: Fuc(a1-2)Gal(b1-4)GlcNAc(b1-3)Gal(b1-4)GlcNAc
Method in brief: as §1

[7] = target: Fuc(a1-2)Gal(b1-4)GlcNAc(b1-3)Gal(b1-4)GlcNAc(b1-3)Gal(b1-4)GlcNAc
Method in brief: as §1

[8] = target: Fuc(a1-2)Gal(b1-4)GlcNAc6S
Method in brief: as §1

[9] = target: Fuc(a1-2)Gal(b1-4)[Fuc(a1-3)]GlcNAc
Method in brief: as §1

[10] = target: Fuc(a1-2)Gal(b1-4)[Fuc(a1-3)]GlcNAc(b1-3)Gal(b1-4)[Fuc(a1-3)]GlcNAc
Method in brief: as §1

[11] = target: Fuc(a1-2)Gal(b1-4)[Fuc(a1-3)]GlcNAc(b1-3)Gal(b1-4)[Fuc(a1-3)]GlcNAc(b1-3)Gal(b1-4)[Fuc(a1-3)]GlcNAc
Method in brief: as §1

Fuc(a1-2)Gal6S(b1-4)Glc = target: Fuc(a1-2)Gal6S(b1-4)Glc
Method in brief: as §1

[12] = target: Fuc(a1-2)Gal6S(b1-4)Glc6S
Method in brief: as §1

[13] = target: Fuc(a1-2)Gal6S(b1-4)GlcNAc
Method in brief: as §1

Fuc(a1-2)[Gal(a1-3)]Gal = target: Fuc(a1-2)[Gal(a1-3)]Gal
Method in brief: as §1

[14] = target: Fuc(a1-2)[Gal(a1-3)]Gal(b1-3)GlcNAc
Method in brief: as §1

[15] = target: Fuc(a1-2)[Gal(a1-3)]Gal(b1-4)Glc
Method in brief: as §1

[16] = target: Fuc(a1-2)[Gal(a1-3)]Gal(b1-4)GlcNAc
Method in brief: as §1

[17] = target: Fuc(a1-2)[Gal(a1-3)]Gal(b1-4)[Fuc(a1-3)]GlcNAc
Method in brief: as §1

[18] = target: Fuc(a1-2)[Gal(a1-4)]Gal(b1-4)GlcNAc
Method in brief: as §1

[19] = target: Fuc(a1-2)[GalNAc(a1-3)]Gal
Method in brief: as §1

[20] = target: Fuc(a1-2)[GalNAc(a1-3)]Gal(b1-3)GlcNAc
Method in brief: as §1

[21] = target: Fuc(a1-2)[GalNAc(a1-3)]Gal(b1-4)Glc
Method in brief: as §1

[22] = target: Fuc(a1-2)[GalNAc(a1-3)]Gal(b1-4)GlcNAc
Method in brief: as §1

[23] = target: Fuc(a1-2)[GalNAc(a1-3)]Gal(b1-4)[Fuc(a1-3)]GlcNAc
Method in brief: as §1

[24] = target: Fuc(a1-2)[GalNAc(a1-4)]Gal(b1-4)GlcNAc
Method in brief: as §1

[25] = target: Fuc(a1-2)[GalNAc(b1-3)]Gal
Method in brief: as §1

Fuc(a1-3)GlcNAc = target: Fuc(a1-3)GlcNAc
Method in brief: as §1

[26] = target: Fuc(a1-3)[Gal(b1-4)]Glc6S
Method in brief: as §1

[27] = target: Fuc(a1-3)[Gal(b1-4)]GlcNAc
Method in brief: as §1

[28] = target: Fuc(a1-3)[Gal(b1-4)]GlcNAc(b1-2)Man(a1-3)[Fuc(a1-3)[Gal(b1-4)]GlcNAc(b1-2)Man(a1-6)]Man(b1-4)GlcNAc(b1-4)GlcNAc
Method in brief: as §1

[29] = target: Fuc(a1-3)[Gal(b1-4)]GlcNAc(b1-2)Man(a1-6)[Gal(b1-4)GlcNAc(b1-2)Man(a1-3)]Man(b1-4)GlcNAc(b1-4)GlcNAc
Method in brief: as §1

[30] = target: Fuc(a1-3)[Gal(b1-4)]GlcNAc(b1-3)Gal(b1-3)[Fuc(a1-4)]GlcNAc
Method in brief: as §1

[31] = target: Fuc(a1-3)[Gal(b1-4)]GlcNAc(b1-4)Gal(b1-4)[Fuc(a1-3)]GlcNAc
Method in brief: as §1

[32] = target: Fuc(a1-3)[Gal(b1-4)]GlcNAc(b1-4)Gal(b1-4)[Fuc(a1-3)]GlcNAc(b1-4)Gal(b1-4)[Fuc(a1-3)]GlcNAc
Method in brief: as §1

[33] = target: Fuc(a1-3)[Gal(b1-4)]GlcNAc6S
Method in brief: as §1

[34] = target: Fuc(a1-3)[Gal3S(b1-4)]Glc6S
Method in brief: as §1

[35] = target: Fuc(a1-3)[Gal3S(b1-4)]GlcNAc
Method in brief: as §1

[36] = target: Fuc(a1-3)[Gal3S(b1-4)]GlcNAc6S
Method in brief: as §1

[37] = target: Fuc(a1-3)[GalNAc(b1-4)]GlcNAc
Method in brief: as §1

Fuc(a1-4)GlcNAc = target: Fuc(a1-4)GlcNAc
Method in brief: as §1

Fuc(b1-3)GlcNAc = target: Fuc(b1-3)GlcNAc
Method in brief: as §1

Gal(a1-2)Gal = target: Gal(a1-2)Gal
Method in brief: as §1

Gal(a1-3)Gal = target: Gal(a1-3)Gal
Method in brief: as §1

Gal(a1-3)Gal(b1-3)GlcNAc = target: Gal(a1-3)Gal(b1-3)GlcNAc
Method in brief: as §1

Gal(a1-3)Gal(b1-4)Glc = target: Gal(a1-3)Gal(b1-4)Glc
Method in brief: as §1

Gal(a1-3)Gal(b1-4)GlcNAc = target: Gal(a1-3)Gal(b1-4)GlcNAc
Method in brief: as §1

[38] = target: Gal(a1-3)Gal(b1-4)[Fuc(a1-3)]GlcNAc
Method in brief: as §1

Gal(a1-3)GalNAc = target: Gal(a1-3)GalNAc
Method in brief: as §1

[39] = target: Gal(a1-3)[Gal(a1-4)]Gal(b1-4)GlcNAc
Method in brief: as §1

Gal(a1-4)Gal(b1-4)Glc = target: Gal(a1-4)Gal(b1-4)Glc
Method in brief: as §1

Gal(a1-4)Gal(b1-4)GlcNAc = target: Gal(a1-4)Gal(b1-4)GlcNAc
Method in brief: as §1

Gal(a1-4)GlcNAc = target: Gal(a1-4)GlcNAc
Method in brief: as §1

Gal(a1-6)Glc = target: Gal(a1-6)Glc
Method in brief: as §1

B1: Factor H (Homo sapiens), P08603 (protein)
chain: MRLLAKIICLMLWAICVAEDCNELPPRRNTEILTGSWSDQTYPEGTQAIYKCRPGYRSLGNVIMVCRKGEWVALNPLRKCQKRPCGHPGDTPFGTFTLTGGNVFEYGVKAVYTCNEGYQLLGEINYRECDTDGWTNDIPICEVVKCLPVTAPENGKIVSSAMEPDREYHFGQAVRFVCNSGYKIEGDEEMHCSDDGFWSKEKPKCVEISCKSPDVINGSPISQKIIYKENERFQYKCNMGYEYSERGDAVCTESGWRPLPSCEEKSCDNPYIPNGDYSPLRIKHRTGDEITYQCRNGFYPATRGNTAKCTSTGWIPAPRCTLKPCDYPDIKHGGLYHENMRRPYFPVAVGKYYSYYCDEHFETPSGSYWDHIHCTQDGWSPAVPCLRKCYFPYLENGYNQNYGRKFVQGKSIDVACHPGYALPKAQTTVTCMENGWSPTPRCIRVKTCSKSSIDIENGFISESQYTYALKEKAKYQCKLGYVTADGETSGSITCGKDGWSAQPTCIKSCDIPVFMNARTKNDFTWFKLNDTLDYECHDGYESNTGSTTGSIVCGYNGWSDLPICYERECELPKIDVHLVPDRKKDQYKVGEVLKFSCKPGFTIVGPNSVQCYHFGLSPDLPICKEQVQSCGPPPELLNGNVKEKTKEEYGHSEVVEYYCNPRFLMKGPNKIQCVDGEWTTLPVCIVEESTCGDIPELEHGWAQLSSPPYYYGDSVEFNCSESFTMIGHRSITCIHGVWTQLPQCVAIDKLKKCKSSNLIILEEHLKNKKEFDHNSNIRYRCRGKEGWIHTVCINGRWDPEVNCSMAQIQLCPPPPQIPNSHNMTTTLNYRDGEKVSVLCQENYLIQEGEEITCKDGRWQSIPLCVEKIPCSQPPQIEHGTINSSRSSQESYAHGTKLSYTCEGGFRISEENETTCYMGKWSSPPQCEGLPCKSPPEISHGVVAHMSDSYQYGEEVTYKCFEGFGIDGPAIAKCLGEKWSHPPSCIKTDCLSLPSFENAIPMGEKKDVYKAGEQVTYTCATYYKMDGASNVTCINSRWTGRPTCRDTSCVNPPTVQNAYIVSRQMSKYPSGERVRYQCRSPYEMFGDEEVMCLNGNWTEPPQCKDSTGKCGPPPPIDNGDITSFPLSVYAPASSVEYQCQNLYQLEGNKRITCRNGQWSEPPKCLHPCVISREIMENYNIALRWTAKQKLYSRTGESVEFVCKRGYRLSSRSHTLRTTCWDGKLEYPTCAKR
Fuc(a1-2)Gal
  glycan array binding signal (z-score): -0.396
Fuc(a1-2)Gal(b1-3)GalNAc
  glycan array binding signal (z-score): 1.03
[1]
  glycan array binding signal (z-score): 3.46
[2]
  glycan array binding signal (z-score): 0.586
[3]
  glycan array binding signal (z-score): 0.238
Fuc(a1-2)Gal(b1-3)GlcNAc
  glycan array binding signal (z-score): 0.681
[4]
  glycan array binding signal (z-score): -0.503
[5]
  glycan array binding signal (z-score): 0.167
Fuc(a1-2)Gal(b1-4)Glc
  glycan array binding signal (z-score): 0.793
Fuc(a1-2)Gal(b1-4)Glc6S
  glycan array binding signal (z-score): -0.096
Fuc(a1-2)Gal(b1-4)GlcNAc
  glycan array binding signal (z-score): 3.15
[6]
  glycan array binding signal (z-score): 0.038
[7]
  glycan array binding signal (z-score): -0.118
[8]
  glycan array binding signal (z-score): -0.485
[9]
  glycan array binding signal (z-score): 0.106
[10]
  glycan array binding signal (z-score): 0.26
[11]
  glycan array binding signal (z-score): -0.325
Fuc(a1-2)Gal6S(b1-4)Glc
  glycan array binding signal (z-score): -0.566
[12]
  glycan array binding signal (z-score): 0.154
[13]
  glycan array binding signal (z-score): -0.529
Fuc(a1-2)[Gal(a1-3)]Gal
  glycan array binding signal (z-score): -0.294
[14]
  glycan array binding signal (z-score): 0.366
[15]
  glycan array binding signal (z-score): -0.526
[16]
  glycan array binding signal (z-score): -0.084
[17]
  glycan array binding signal (z-score): 0.224
[18]
  glycan array binding signal (z-score): -0.137
[19]
  glycan array binding signal (z-score): -0.477
[20]
  glycan array binding signal (z-score): 0.354
[21]
  glycan array binding signal (z-score): -0.381
[22]
  glycan array binding signal (z-score): 0.018
[23]
  glycan array binding signal (z-score): 0.84
[24]
  glycan array binding signal (z-score): -0.167
[25]
  glycan array binding signal (z-score): 3.61
Fuc(a1-3)GlcNAc
  glycan array binding signal (z-score): 1.15
[26]
  glycan array binding signal (z-score): -0.418
[27]
  glycan array binding signal (z-score): -0.291
[28]
  glycan array binding signal (z-score): -0.324
[29]
  glycan array binding signal (z-score): -0.455
[30]
  glycan array binding signal (z-score): 0.031
[31]
  glycan array binding signal (z-score): -0.587
[32]
  glycan array binding signal (z-score): -0.434
[33]
  glycan array binding signal (z-score): 0.478
[34]
  glycan array binding signal (z-score): -0.279
[35]
  glycan array binding signal (z-score): -0.232
[36]
  glycan array binding signal (z-score): -0.41
[37]
  glycan array binding signal (z-score): -0.626
Fuc(a1-4)GlcNAc
  glycan array binding signal (z-score): 0.378
Fuc(b1-3)GlcNAc
  glycan array binding signal (z-score): 0.235
Gal(a1-2)Gal
  glycan array binding signal (z-score): 0.862
Gal(a1-3)Gal
  glycan array binding signal (z-score): 1.26
Gal(a1-3)Gal(b1-3)GlcNAc
  glycan array binding signal (z-score): 0.079
Gal(a1-3)Gal(b1-4)Glc
  glycan array binding signal (z-score): -0.299
Gal(a1-3)Gal(b1-4)GlcNAc
  glycan array binding signal (z-score): -0.491
[38]
  glycan array binding signal (z-score): -0.583
Gal(a1-3)GalNAc
  glycan array binding signal (z-score): -0.24
[39]
  glycan array binding signal (z-score): -0.355
Gal(a1-4)Gal(b1-4)Glc
  glycan array binding signal (z-score): -0.426
Gal(a1-4)Gal(b1-4)GlcNAc
  glycan array binding signal (z-score): -0.467
Gal(a1-4)GlcNAc
  glycan array binding signal (z-score): -0.49
Gal(a1-6)Glc
  glycan array binding signal (z-score): -0.53
